Test results from ChEMBL document CHEMBL4888484, “Replenishing the malaria drug discovery pipeline: Screening and hit evaluation of the MMV Hit Generation Library 1 (HGL1) against asexual blood stage Plasmodium falciparum ,using a nano luciferase reporter read-out” (2022).
Screen size: about 150,000 compounds; about 540 (0.36%) showed an effect of 50% or more. The list shows a part of the results.

System: Plasmodium falciparum
Assay: Primary screen in NF54 nanoGlo assay, in single point, at 2uM, 72h; a lower Z score goes with more inhibition
Format: functional, Erythrocyte
Settings: timepoint 72 hour

Row | Structure (SMILES) | % Inhibition | Z score
1 | CN(CCS(C)(=O)=O)C(=O)[C@@H]1CCCc2sccc21 | -5% | 0.59
2 | CC(C)N1CCCCC1C(=O)NC1CC=CCC1 (stereo not drawn) | -1% | 0.17
3 | CCC[C@H](C)c1c(-c2ccccc2)ncn1C1CCN(S(C)(=O)=O)CC1 | -20% | 2.9
4 | CN1CCN2CCN(C(=O)CCOc3ccccc3)C[C@H]2C1=O | -2% | 0.32
5 | Clc1cccc(OC2CN(C[C@@H]3CCCN4CCCC[C@H]34)C2)c1 | 3% | -0.42
6 | CN(CC(=O)N1CCc2ccccc21)c1cccc(C#N)c1 | 0% | -0.01
7 | Cc1nc(N2CCC[C@H](c3cc[nH]n3)C2)c2cnn(C)c2n1 | -19% | 2.09
8 | COc1ccc(-c2nc(N3CCC(Cc4ccccc4)CC3)nc3nn(C)c(N)c23)c(F)c1 | 11% | -1.36
9 | Cc1sc(CC(=O)N2CC(C)(C)[C@H]2c2cccnc2)nc1C(C)C | -14% | 1.9
10 | C[C@H]1COCCN1C(=O)CCc1nc2ccccc2s1 | -8% | 1.26
11 | Cc1nc(-c2cn([C@H]3CCCN(C(=O)c4cccc(N(C)C)c4)C3)nn2)no1 | -7% | 0.85
12 | Cc1cc(CN(C)C(=O)NCc2ccncc2)no1 | -15% | 1.76
13 | COc1cccc(C(=O)NCc2cncc(-c3ccsc3)c2)c1 | -14% | 2.11
14 | Cc1onc(C(=O)NCCc2ccc(Cl)cc2)c1CN1CCOCC1 | -12% | 1.26
15 | Cc1nnc(CN(CC(C)C)c2cccc(O)c2)o1 | -7% | 1.07
16 | COC(=O)c1ccc(NC(=O)Cn2c(=O)n(Cc3ccc(F)cc3)c(=O)c3nn(C)cc32)cc1 | -7% | 1.01
17 | CN(C)C(=O)C[C@H]1CCc2nn(Cc3cccnc3)c(=O)n2CC1 | 6% | -0.9
18 | Cn1ccnc1[C@@H](O)c1cc2n(n1)CCN(c1ccc(C#N)cn1)C2 | -22% | 2.19
19 | CC1CN(S(=O)(=O)c2ccc3c(c2)CCC3)CC(C)O1 (stereo not drawn) | -2% | 0.38
20 | O=C(c1ccc2nsnc2c1)N1CC(N2C(=O)C3CC=CCC3C2=O)C1 (stereo not drawn) | -3% | 0.29
21 | COCCN1CCC[C@H](NC(=O)C(F)(F)C2(O)CCC2)C1 | -5% | 0.66
22 | CC1(C(=O)N2CCC[C@]3(CNC(=O)C3)C2)CCCCCC1 | -6% | 0.68
23 | COCCN1C(=O)c2ccc(-c3nc4ccccc4o3)cc2C1=O | -5% | 0.77
24 | CC(C)C[C@@H](CNCc1ccc(F)cc1F)N(C)C | -6% | 0.7
25 | CCCCNC(=O)Cn1c(C)c(Cc2ccccc2)c(=O)n2nc(-c3ccc(C)cc3)nc12 | 0% | 0.01
26 | COc1cccc(NC(=O)c2nnn(-c3ccc(F)c(C)c3)c2-c2cccnc2)c1 | -9% | 1.59
27 | COc1ccc2c(C)c(C(=O)N3CCC4(CCCC4)C3)oc2c1 | -7% | 0.69

Row | Structure (SMILES) | % Inhibition | Z score
28 | COc1ccc(CCN2C(=O)N[C@@H](CC(=O)N3CCN(c4ccccn4)CC3)C2=O)cc1 | 2% | -0.28
29 | CN1C(=O)c2cc(C(=O)N3CCCCCC3)nn2C[C@@]1(C)C(=O)NC1CCCCCC1 | 12% | -1.34
30 | CCOc1cc(C(=O)NC2CC(C)(F)C2)ccn1 (stereo not drawn) | -10% | 1.73
31 | CC(C)CCN1CC[C@@H](NC2CCCCC2)CCC1=O | -4% | 0.55
32 | O=C(NCCCNC(=O)c1ccc(-c2ccc(Cl)c(Cl)c2)o1)c1cnccn1 | -8% | 0.85
33 | Cc1ccc(NC(=O)C(=O)Nc2ccc3nccnc3c2)c(C)c1 | 2% | -0.34
34 | Cn1cc([C@H]2N(C(=O)CCc3ccc(C(N)=O)cc3)CC2(C)C)cn1 | -1% | 0.13
35 | CC(C)C[C@H](CCO)CNC(=O)c1cc(F)c(F)c(F)c1 | -11% | 1.26
36 | Cc1cc(C(=O)N(CC2CCN(Cc3ccccc3F)CC2)C[C@H]2CCCO2)c(C)o1 | -15% | 2.62
37 | CC1CC(Nc2cccc(S(=O)(=O)N3CCC(O)CC3)c2)C(C)O1 (stereo not drawn) | -13% | 2.34
38 | CCN(CC(=O)N1c2ccccc2NC(=O)C[C@@H]1C)Cc1ccc(Cl)s1 | -4% | 0.39
39 | CCOC(=O)c1c(S(=O)(=O)NCC(=O)Nc2cc(C)cc(C)c2)c(C)n(CC)c1C | -18% | 1.62
40 | C[C@H](NC1CCN(c2nc3ccccc3o2)CC1)c1nnc(N)s1 | -2% | 0.26
41 | O=C(C[C@H]1COCCN1C(=O)c1ccc(Cl)cn1)c1ccco1 | -13% | 1.71
42 | O=C1COc2c(cccc2NC(=O)c2cccs2)N1 | 2% | -0.19
43 | CC1=NN(c2ccc(C)cc2)C(=O)C12Cc1ccccc1N1CCCCC12 (stereo not drawn) | -32% | 3.81
44 | C[C@@]12CCCN1C(=O)N(c1cccc3[nH]ccc13)C2=O | 2% | -0.45
45 | O=S(=O)(Nc1nc2ccccc2nc1Nc1ccc2cn[nH]c2c1)c1cc(F)ccc1F | -10% | 1.84
46 | CCn1nc(C)c(CNS(=O)(=O)c2cccs2)c1C | -4% | 0.81
47 | CC1CN(S(=O)(=O)N2CCCC2CN)C(C)CO1 (stereo not drawn) | -1% | 0.13
48 | O=C(Nc1cccc(S(=O)(=O)N2CCOCC2)c1)c1cc[n+]([O-])cc1 | 0% | 0.01
49 | CC1(C)CO[C@@H](CCC(=O)N2CCC(CN3CCNC3=O)CC2)C1 | -3% | 0.54
50 | CC(C)(C)c1nnc(NCc2cccc3cn[nH]c23)o1 | -13% | 1.37
51 | CCc1cc(C(=O)Nc2ccon2)cs1 | -16% | 2.03
52 | CCC(C)(NC(=O)C1CC12CCOCC2)c1ccccc1 (stereo not drawn) | 0% | 0.03
53 | Cc1cnccc1-c1cccc(C(=O)N2CCC2)c1 | 2% | -0.18
54 | Cc1nc(-c2cccc(C(=O)NC[C@H]3COCCO3)c2)sc1C | 7% | -0.9
